# Data reported in the antibiotic and cytotoxicity screens of Wong et al. (2023).
# This is one part of the list.
# Tested on: HepG2
# Assay: cytotoxicity call (relative viability < 0.9)
# Details: 10 µM
row,SMILES,cytotoxicity call
1,C[C@@H]1CN([C@@H](C)CO)S(=O)(=O)c2ccc(C#CCC3CCCC3)cc2O[C@@H]1CN(C)C(=O)c1cnccn1,inactive
2,C[C@@H]1CCCCO[C@H](CN(C)C(=O)Nc2ccccc2)[C@@H](C)CN([C@@H](C)CO)C(=O)c2cc(NC(=O)CCC(F)(F)F)ccc2O1,inactive
3,Cc1noc(C)c1S(=O)(=O)Nc1ccc2c(c1)C(=O)N([C@H](C)CO)C[C@@H](C)[C@@H](CN(C)C(=O)Nc1ccccc1)OCCCC[C@@H](C)O2,inactive
4,C[C@H](CO)N1C[C@H](C)[C@H](CN(C)C(=O)Nc2ccc(C(F)(F)F)cc2)Oc2ccc(NC(=O)Nc3ccc4c(c3)OCO4)cc2C1=O,inactive
5,OC[C@@H](O)[C@@H](O[C@@H]1O[C@H](CO)[C@H](O)[C@H](O)[C@H]1O)[C@H](O)[C@@H](O)CO,inactive
6,Cc1ccc(S[C@H](C)C(=O)c2ccc(C)c(Cl)c2)cc1,inactive
7,C[C@@H]1CCCCO[C@@H](CN(C)Cc2ccncc2)[C@H](C)CN([C@@H](C)CO)C(=O)c2cc(NC(=O)NC3CCCCC3)ccc2O1,inactive
8,C[C@@H]1CN([C@H](C)CO)C(=O)Cc2cc(NC(=O)Cc3ccccc3)ccc2O[C@@H]1CN(C)S(=O)(=O)c1ccccc1,inactive
9,COc1ccc(S(=O)(=O)Nc2ccc3c(c2)C(=O)N([C@H](C)CO)C[C@H](C)[C@H](CN(C)C(=O)NC2CCCCC2)OCCCC[C@H](C)O3)cc1,inactive
10,COc1ccc(-c2cnc3c(c2)C(=O)N([C@H](C)CO)C[C@H](C)[C@@H](CN(C)C(=O)Cc2ccccn2)O3)cc1,inactive
11,C[C@H](CO)N1C[C@H](C)[C@@H](CN(C)Cc2ccc(Cl)c(Cl)c2)Oc2ccc(NS(=O)(=O)c3ccc(Cl)cc3)cc2C1=O,active
12,C[C@@H]1CN([C@H](C)CO)C(=O)c2cc(NC(=O)Nc3ccccc3)ccc2O[C@@H](C)CCCCO[C@H]1CN(C)S(=O)(=O)c1ccccc1,inactive
13,Cc1ccc(S(=O)(=O)N2C[C@@H](O)COC[C@H]3O[C@H](CC(=O)NCc4ccc(Cl)cc4)CC[C@@H]32)cc1,inactive
14,O=C(C[C@H]1C[C@H]2c3cc(NC(=O)C4CCOCC4)ccc3O[C@H]2[C@@H](CO)O1)NCc1cc(F)ccc1F,inactive
15,c1ccc2cc3nc4c(ccc5ccccc54)nc3cc2c1,inactive
16,CC1(C)OC2CC3C4CCC5=CC(=O)C=CC5(C)C4C(O)CC3(C)C2(C(=O)CO)O1 (centres undefined),inactive
17,NC[C@H](c1cccs1)N1CCCCCC1,inactive
18,CC(C)NC(=O)N(C)C[C@H]1OCCCC[C@H](C)Oc2ccc(NS(C)(=O)=O)cc2C(=O)N([C@@H](C)CO)C[C@@H]1C,inactive
19,C[C@@H]1CCCCO[C@@H](CN(C)CC2CCCCC2)[C@@H](C)CN([C@@H](C)CO)C(=O)c2cc(NS(=O)(=O)c3ccc(Cl)cc3)ccc2O1,active
20,COc1ccc(S(=O)(=O)Nc2ccc3c(c2)C(=O)N([C@H](C)CO)C[C@H](C)[C@H](CN(C)Cc2ccc(C(F)(F)F)cc2)OCCCC[C@H](C)O3)cc1,inactive
21,C[C@@H]1CCCCO[C@@H](CN(C)Cc2ccc(C(=O)Nc3ccccc3N)cc2)[C@@H](C)CN([C@H](C)CO)C(=O)c2cc(NC(=O)c3ccccc3)ccc2O1,active
22,C[C@H]1CN([C@@H](C)CO)C(=O)CCCn2cc(nn2)CO[C@H]1CN(C)S(=O)(=O)c1ccc(-c2ccccc2)cc1,inactive
23,COc1ccc(C#Cc2ccc3c(c2)O[C@H](CN(C)S(=O)(=O)c2ccccc2F)[C@H](C)CN([C@@H](C)CO)S3(=O)=O)cc1,inactive
24,C[C@@H]1CN([C@@H](C)CO)C(=O)c2cc(C3=CCCCC3)cnc2O[C@@H]1CN(C)C(=O)CN1CCOCC1,inactive
25,COc1ccc(NC(=O)N(C)C[C@H]2OCCCC[C@H](C)Oc3ccc(NC(=O)Nc4ccc5c(c4)OCO5)cc3C(=O)N([C@@H](C)CO)C[C@H]2C)cc1,inactive
26,CN1CCCN=C1COC(=O)C(O)(c1ccccc1)C1CCCCC1.Cl (centres undefined),inactive
27,C[C@@H]1CN([C@@H](C)CO)C(=O)c2cc(NC(=O)c3ccccc3)ccc2O[C@@H](C)CCCCO[C@@H]1CN(C)Cc1ccc(C(F)(F)F)cc1,inactive
28,CCC(=O)NCc1nc(C)cc(N(C)C)n1,inactive
29,CN1CCc2nc(C(=O)NC3CC(C(=O)N(C)C)CCC3NC(=O)C(=O)Nc3ccc(Cl)cn3)sc2C1.Cc1ccc(S(=O)(=O)O)cc1.O (centres undefined),inactive
